# Laboratory results published in paper PMC4336329 (PLoS ONE, 2015).
# Screen size: about 310,000 compounds; about 14,000 (4.5%) showed an effect of 50% or more. The effect is printed as a negative number. Some of the results follow.
# Biological target: human ether-à-go-go-related gene (hERG) potassium channel (human, UniProt Q12809)
# Test: primary screen, population patch clamp on CHO cells stably expressing hERG
# 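Note: peak tail current of the secondary pulse compared with the same well before compound.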
# Chain of human ether-à-go-go-related gene (hERG) potassium channel (Q12809 whole entry, looked up): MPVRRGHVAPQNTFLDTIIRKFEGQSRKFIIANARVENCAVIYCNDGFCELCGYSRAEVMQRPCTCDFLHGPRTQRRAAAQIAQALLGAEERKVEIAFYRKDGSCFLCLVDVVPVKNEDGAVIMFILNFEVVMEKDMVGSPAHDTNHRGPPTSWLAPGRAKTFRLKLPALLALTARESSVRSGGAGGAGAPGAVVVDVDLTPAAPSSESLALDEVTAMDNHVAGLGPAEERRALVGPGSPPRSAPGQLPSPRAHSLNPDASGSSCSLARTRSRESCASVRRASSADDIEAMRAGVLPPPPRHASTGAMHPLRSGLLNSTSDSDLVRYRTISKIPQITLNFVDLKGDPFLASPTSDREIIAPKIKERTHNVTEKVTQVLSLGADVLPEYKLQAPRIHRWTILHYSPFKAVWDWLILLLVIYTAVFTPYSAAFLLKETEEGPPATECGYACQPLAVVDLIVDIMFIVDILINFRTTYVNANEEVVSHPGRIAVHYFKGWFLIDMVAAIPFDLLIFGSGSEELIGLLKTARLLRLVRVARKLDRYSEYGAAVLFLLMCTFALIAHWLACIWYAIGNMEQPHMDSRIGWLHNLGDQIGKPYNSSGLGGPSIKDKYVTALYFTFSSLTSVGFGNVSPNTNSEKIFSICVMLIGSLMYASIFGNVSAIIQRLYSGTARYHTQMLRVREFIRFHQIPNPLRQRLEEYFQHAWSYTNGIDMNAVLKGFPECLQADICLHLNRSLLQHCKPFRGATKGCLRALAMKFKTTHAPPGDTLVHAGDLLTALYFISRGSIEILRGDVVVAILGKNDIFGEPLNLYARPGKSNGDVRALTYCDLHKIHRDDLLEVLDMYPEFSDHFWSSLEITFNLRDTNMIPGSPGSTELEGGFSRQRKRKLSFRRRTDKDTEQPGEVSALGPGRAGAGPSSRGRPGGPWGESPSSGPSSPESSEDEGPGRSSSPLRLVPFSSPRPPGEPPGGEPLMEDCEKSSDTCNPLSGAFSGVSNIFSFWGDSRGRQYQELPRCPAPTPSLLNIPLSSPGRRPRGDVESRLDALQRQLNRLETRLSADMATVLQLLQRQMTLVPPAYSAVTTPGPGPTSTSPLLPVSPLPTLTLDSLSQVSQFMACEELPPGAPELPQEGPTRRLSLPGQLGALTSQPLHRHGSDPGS
row,Compound,"hERG current change (%, negative = inhibition) at 10uM [%]"
1,Cc1coc2c(C)c3oc(=O)c(CCC(=O)NCCN4CCOCC4)c(C)c3cc12,-24.6
2,CCN1CCN(CC(=O)N/N=C/c2cc(Br)cs2)CC1,-18.4
3,Cc1ccc(S(=O)(=O)N2CCCCC2)cc1C(=O)Nc1cccnc1,-33.5
4,O=C(O)CC(NC(=O)C(c1ccccc1)c1ccccc1)c1ccc(F)cc1 (stereo not shown),0.78
5,OC(Cn1cncn1)(Cn1cncn1)c1ccc(F)cc1F,18.7
6,CCCC(=O)N(Cc1cc(=O)[nH]c2ccccc12)c1cccc(C)c1,0.414
7,COc1ccc(C2NCCc3c2[nH]c2ccccc32)cc1CSc1nc2ccccc2s1.Cl (stereo not shown),-10.3
8,COc1ccc(S(=O)(=O)N2CCCCC2)cc1NC(=O)c1ccc(CS(C)(=O)=O)cc1,7.71
9,CN1CCC(N(C)CC(O)c2ccccc2)CC1.O=C(O)C(=O)O (stereo not shown),-6.05
10,Cc1ccccc1CSCC(=O)Nc1c(C)n(C)n(-c2ccccc2)c1=O,-11.4
11,CCOC(=O)/C(C#N)=C/N1CCOCC1,-1.97
12,O=C(c1cccc(C(F)(F)F)c1)N1CCC(=O)N(C(CO)Cc2ccccc2)CC1 (stereo not shown),15.5
13,Cc1ccc(CN2CCN(Cc3ccc(OCCO)cc3)CC2CCO)o1 (stereo not shown),1.29
14,C#CCOC(=O)CCCC(=O)NCCCCCCCC,-9.97
15,CCOC(=O)c1ccc(NC(=O)NC2CC3CCC(C2)N3)cc1 (stereo not shown),14.6
16,CCN(CC)S(=O)(=O)c1ccc(OC)c(N)c1,15.9
17,O=C(NCc1ccc(F)cc1)c1cnc2sccn2c1=O,-16.4
18,COCCn1c(C)cc(C2=NNC(=Nc3ccc(F)cc3)SC2)c1C,0.617
19,Cc1cc(S(=O)(=O)N2CCCC2)ccc1OCC(=O)Nc1ccc(C(N)=O)cc1,19.4
20,CCN1C(=O)/C(=C\N2CCCc3ccccc32)SC1=S,6.43

row,Compound,"hERG current change (%, negative = inhibition) at 10uM [%]"
1,Cc1csc(=Nc2cccnc2)n1Cc1ccco1,-0.17
2,CCN(C(=O)COC(=O)c1[nH]c(C)c(C(C)=O)c1C)c1c(N)n(Cc2ccccc2)c(=O)[nH]c1=O,0.295
3,COc1ccc(CCNC(=O)c2cnccn2)cc1,10.8
4,COc1ccc(C(=O)N/C(=C/c2ccco2)C(=O)N2CCCCCC2)cc1,-18.2
5,COc1ccc(-n2c(SCC(=O)Nc3nc(C)cs3)nnc2-c2ccoc2C)cc1,-81
6,COc1cc(CCN2C(=O)c3cccc4cccc(c34)C2=O)c(S(=O)(=O)NCCCO)cc1OC,3.81
7,CS(=O)(=O)c1cnc(-c2ccccc2)nc1-c1ccccc1Cl,-5.98
8,CC(C)[C@@H](C(=O)N1CCN(C(=O)OC(C)(C)C)CC1)n1cc(CCO)nn1,8.11
9,CC1=NN(c2nc3ccccc3[nH]2)C(=O)/C1=C/N(C)C,2.03
10,O=C(Nc1ccccc1)O/N=C1/CCCc2occc21,2.17
11,CCCCc1cc(=O)oc2c(C)c(OCC(=O)N3CCCC3)ccc12,-64.8
12,CCN(CC)CC1(O)CCN(C(=O)c2ccc(Cl)c(Cl)c2)CC1,-5.61
13,O=S(=O)(c1ccc2ccccc2c1)N1CCCOC1,0.216
14,CCOc1ccccc1NC(=O)N1CCC(c2nc3ccc(C)cc3[nH]2)CC1,-55.5
15,O=C(CN(C(=O)CCC(=O)Nc1nccs1)c1ccccc1F)NCCc1ccccc1,25.1
16,CCOC(=O)CCc1c(C(=O)OCC)[nH]c(CC)c1C(=O)OCc1ccccc1,-17.2
17,Cc1cccc(C)c1N=C1C(=O)Nc2ccccc21,15.1
18,CCOC(=O)C1CCCN(CCC(=O)Nc2cc(C)ccc2C)C1.Cl (stereo not shown),-67.2
19,O=C1C=C(c2ccccc2)C[C@@H](c2ccc(Cl)cc2)C1,14.3
20,Cc1ccc(N2C(=O)NC3(CCCCC3)C2=O)cc1,9.24

row,Compound,"hERG current change (%, negative = inhibition) at 10uM [%]"
1,Cc1ccc(S(=O)(=O)c2nc(S(C)(=O)=O)sc2NCc2ccc3c(c2)OCO3)cc1,-13.6
2,Cn1cc([N+](=O)[O-])c(C(=O)N2CCN(Cc3ccc4c(c3)OCO4)CC2)n1,46.6
3,O=C(NNS(=O)(=O)c1ccccc1)c1cnn(-c2ccccc2)c1-n1cccc1,-9.66
4,O=C(NCCCN1CCOCC1)c1ccc2c(=O)n(-c3ccc(F)c(Cl)c3)c(=S)[nH]c2c1,9
5,CCC(=O)N(CCC(c1ccco1)C(C)C)Cc1ccccc1 (stereo not shown),-7.5
6,CCOCN(C(=O)Cn1c(COC)nc2ccccc21)c1c(C)cccc1CC,-7.55
7,CCN(CC)CCCN1C(=O)c2oc3ccccc3c(=O)c2C1c1cccc(OC)c1OC (stereo not shown),-6.45
8,Oc1ccc(-c2nccc(-c3cccs3)n2)cc1,-5.68
9,Nc1cc(Cl)ccc1Oc1ccccc1,-21.5
10,O=C(CCC(=O)NNC(=O)COc1ccc(Br)cc1Br)NCc1ccccc1,16.9
11,CCc1nnc(NC(=O)c2ccc(Cl)c(S(=O)(=O)N3CCc4ccccc43)c2)s1,9.33
12,CNc1ccc([N+](=O)[O-])cc1,7.82
13,CNC(=O)NC(=O)COc1c(F)c(F)cc(F)c1F,18.6
14,COc1ccc(C(=O)NCCCc2ccccc2)cc1,-1.98
15,O=C(NCCCN1CCOCC1)c1ccc2c(c1)N(Cc1ccccc1F)C(=O)c1ccccc1S2=O (stereo not shown),-3.82
16,O=C(O)c1c[nH]c2ccc(F)cc2c1=O,10.1
17,O=C(Nc1ccccc1)OC1CCCCc2cccnc21 (stereo not shown),2.42
18,CC(C)CCN1CCN(Cc2cnc(N3CCCC3)s2)CC1CCO (stereo not shown),2.89
